Test results taken from PubChem BioAssay AID2100 (National Center for Advancing Translational Sciences (NCATS), 2009).
Hit rate of the full screen: of about 300,000 compounds, about 1,200 (0.4%) were called active. Inconclusive results, whose numbers are uncertain, are shown with a selection of clear calls. Calls come from the whole dose curve; as a rule, active = well fitted inhibition curve with a large enough effect; inconclusive = small, poorly fitted or top-dose-only effect, or another doubt; inactive = no such curve, though single readings can be large or run the other way. Potencies of inconclusive entries are doubtful fits and often do not repeat.

target: Lysosomal alpha-glucosidase (Homo sapiens) (UniProt P10253); experiment: qHTS Assay for Inhibitors and Activators of Human alpha-Glucosidase Cleavage of Glycogen; conditions: recombinant GAA, glycogen substrate, Amplex Red glucose oxidase fluorescence; activity change, negative = inhibition: at 76.4 µM (top of the series) unless noted;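 for activity change, negative = inhibition: 0% = full enzyme reaction and -100% = no-enzyme basal signal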
Method in brief: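 Recombinant human enzyme (4 nM); glycogen substrate; 37 C, 40 min, pH 5.0. Readout: coupled glucose oxidase/Amplex Red fluorescence.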
Potency is the fitted concentration of half-maximal effect.

| Compound | Potency | activity change, negative = inhibition |
| --- | --- | --- |
| O=C(C1=C(Nc2ccccc2)c2ccccc2S(=O)(=O)N1)c1ccccc1 | inconclusive: 10 µM [inhibitor, partial curve] |  |
| CCc1ccc(C(=O)NNC(=S)Nc2ccc(S(N)(=O)=O)cc2)s1 | inconclusive: 50.1 µM [inhibitor, partial curve] |  |
| CC(c1ccc(F)cc1)n1c(-c2ccc3ccccc3n2)n[nH]c1=S (stereo unspecified) | inconclusive: 10 µM [inhibitor, partial curve] |  |
| COc1cccc(-c2nnc3n2N=C(c2cc(OC)ccc2OC)CS3)c1 | inconclusive: 39.5 µM [inhibitor, single point] |  |
| CC(=O)c1cccc(NC(=O)c2ccc(-c3ccccc3[N+](=O)[O-])o2)c1 |  | inactive: -0.766% |
| Cc1ccc(Cn2c(N/N=C/c3ccncc3)nc3c2c(=O)n(C)c(=O)n3C)cc1 | inconclusive: 31.4 µM [inhibitor, partial curve] |  |
| Cc1ccc(Cl)cc1NC(=O)Cn1cc(S(=O)(=O)Cc2ccccc2Cl)c2ccccc21 |  | inactive: 19.2% [at 76.3 µM] |
| NC(=S)NN=C1c2cc(OCCN3CCOCC3)ccc2-c2ccc(OCCN3CCOCC3)cc21 | inconclusive: 50.1 µM [inhibitor, single point] |  |
| COc1ccc(NC(=S)N(Cc2ccc(N(C)C)cc2)Cc2ccco2)cc1 | inconclusive: 35.5 µM [inhibitor, partial curve] |  |
| C/C(=N\NC(=O)c1cccc(N/N=C(\C)c2ccncc2)c1)c1ccncc1 | inconclusive: 10 µM [inhibitor, partial curve] |  |
| CCc1cc(OCCN2C(=O)NC(C)(C)C2=O)ccc1Cl | inconclusive: 19.8 µM [inhibitor, partial curve, poor fit] |  |
| O=[N+]([O-])c1ccccc1S(=O)(=O)N1CCN(Cc2cc3c(cc2O)OCO3)CC1 | inconclusive: 5.58 µM [inhibitor, full curve] |  |
| COC(=O)c1ccc(C(=O)Nc2ccc(N)cc2N)cc1 | inconclusive: 3.98 µM [inhibitor, full curve] |  |
| COCC(=O)n1nc(NCc2ccc(OC)cc2)nc1NCc1ccc(OC)cc1 | inconclusive: 24.9 µM [inhibitor, single point] |  |
| CC(=O)/C(=N/Nc1ccccc1)N1CCOCC1 | active: 10 µM |  |
| C=CCc1ccc(O)c(-c2cc(CC=C)ccc2O)c1 | inconclusive: 31.6 µM [inhibitor, partial curve] |  |
| CCOC(=O)C(=O)NNc1ccccc1OC | inconclusive: 10 µM [inhibitor, full curve] |  |
| C=CCNC(=S)NNC(=O)c1ccco1 | inconclusive: 22.2 µM [inhibitor, partial curve] |  |
| O=C(NN=C1CCCCCCC1)c1ccccn1 | inconclusive: 28 µM [inhibitor, partial curve] |  |
| Cc1cc(C)cc(NC(=O)CCNS(=O)(=O)c2ccc3c(c2)oc(=O)n3C)c1 |  | inactive: -5.7% |
| O=C(NCC(=O)N(Cc1ccccc1)C(C(=O)NC1CCCCC1)c1ccco1)c1ccco1 (stereo unspecified) |  | inactive: -1.03% |
| NNc1nc2c(-c3ccc(F)cc3)nnn2c2ccccc12 | inconclusive: 20 µM [inhibitor, partial curve] |  |
| CCC(C)n1c(=N)c(S(=O)(=O)c2ccccc2)cc2c(=O)n3ccccc3nc21 (stereo unspecified) |  | inactive: 16.9% [at 76.3 µM] |
| Cc1cccc(C(=O)NC2C(=O)NNC2c2ccc(Cl)cc2)c1 (stereo unspecified) | inconclusive: 22.4 µM [inhibitor, partial curve] |  |

| Compound | Potency | activity change, negative = inhibition |
| --- | --- | --- |
| C/C(=N\NC(=O)c1nnn(-c2nonc2N)c1CN1CCCCCC1)c1ccc(Br)cc1 | inconclusive: 11.2 µM [inhibitor, partial curve] |  |
| Cc1ccc(CSc2nc3ccncc3[nH]2)cc1 |  | inactive: -18.3% |
| Cc1[nH]c2ccccc2c1CC(=O)O | inconclusive: 19.8 µM [inhibitor, single point] |  |
| COc1ccc(-c2nc(C#N)c(NCCCn3ccnc3)o2)cc1OC | inconclusive: 22.2 µM [inhibitor, partial curve] |  |
| Cc1cccc(OCC(=O)N(Cc2cccc(Cl)c2)Cc2ccco2)c1C |  | inactive: -0.492% [at 76.3 µM] |
| CCCC(=O)Oc1c(Sc2ccc(Cl)cc2)c(C)nn1-c1ccccc1 | inconclusive: 31.6 µM [inhibitor, partial curve] |  |
| Oc1ccc(N=Cc2c(O)ccc3ccccc23)cc1 | inconclusive: 4.47 µM [inhibitor, full curve] |  |
| COCCN=c1scc(-c2cccs2)n1/N=C/c1ccc(O)c(O)c1O | inconclusive: 6.31 µM [inhibitor, partial curve] |  |
| Cc1nnc2sc(SCc3ccccc3Cl)nn2c1=O |  | inactive: 7.74% |
| CCC(C)NC(=O)C1CCN(C(=O)c2cc3sccc3n2Cc2ccc(Cl)cc2)CC1 (stereo unspecified) |  | inactive: 16.6% [at 76.3 µM] |
| C/C(=N/NC(=O)CNC(=O)c1ccccn1)c1ccccc1 | inconclusive: 35.5 µM [inhibitor, partial curve] |  |
| Cc1ccc(C2NNC(=O)C2NC(=O)c2ccccc2)cc1 (stereo unspecified) | inconclusive: 39.8 µM [inhibitor, single point] |  |
| Cc1ccc2[nH]c3c(c2c1)CCCC3NCCO (stereo unspecified) | inconclusive: 44.7 µM [inhibitor, partial curve] |  |
| COc1cc(C(c2c(C)[nH][nH]c2=O)c2c(C)[nH][nH]c2=O)ccc1OC(=O)c1ccccc1F | inconclusive: 28.2 µM [inhibitor, single point] |  |
| CCOc1ccc(NC(=S)NNC(=O)c2ccc(Br)cc2)cc1 | active: 39.8 µM |  |
| Oc1ccccc1N1CCN(C(=S)NCCc2ccccc2)CC1 | inconclusive: 8.84 µM [inhibitor, full curve] |  |
| CC(C)c1ccc(/C=N/N2CCN(c3ccccn3)CC2)cc1 | inconclusive: 15.8 µM [inhibitor, partial curve] |  |
| NNC(=O)c1cc2ccccc2cc1O | inconclusive: 3.55 µM [inhibitor, full curve] |  |
| Cc1ccc(S(=O)(=O)N(C)C)cc1NC(=S)NNC(=O)C(N)=O | inconclusive: 3.98 µM [inhibitor, full curve] |  |
| COc1cc2c(cc1OC)CN(Cc1nc3ccsc3c(=O)[nH]1)CC2 |  | inactive: 20.7% |
| CCN(CC)S(=O)(=O)c1ccc(N2CCCC2)c(NS(=O)(=O)c2ccccc2)c1 | inconclusive: 12.6 µM [inhibitor, partial curve] |  |
| CC(C)Oc1ccccc1C1(c2ccccc2)NC(=O)NC1=O (stereo unspecified) | inconclusive: 20 µM [inhibitor, single point] |  |
| CCOC(=O)C1CCN(S(=O)(=O)c2cc3c(cc2C)NC(=O)CO3)CC1 | inconclusive: 50.1 µM [inhibitor, single point] |  |
| CC(CC(=O)N1CCN(c2ccccc2)CC1)c1ccccc1 (stereo unspecified) |  | inactive: 7.33% |

| Compound | Potency | activity change, negative = inhibition |
| --- | --- | --- |
| Nc1nc(C2C(=O)CCCC2=O)cs1 | inconclusive: 24.9 µM [inhibitor, single point] |  |
| CCc1n[nH]c(=S)n1/N=C/c1ccc(N(C)c2ccccc2)cc1 | inconclusive: 7.03 µM [inhibitor, full curve] |  |
| Cc1ccc(NC(=O)CSCc2cnn(-c3ccccc3)c2-n2cccc2)c(Cl)c1 | inconclusive: 7.08 µM [inhibitor, partial curve] |  |
| COc1cccc(CNc2ccc(N3CCC(C)CC3)cc2)c1OC | inconclusive: 6.31 µM [inhibitor, single point] |  |
| CC1(C)CC(O)C(C)(C)N1O (stereo unspecified) | active: 15.7 µM |  |
| CSc1ccc(-c2nc3cnccn3c2Nc2ccc3c(c2)OCO3)cc1 | active: 22.2 µM |  |
| O=c1[nH][nH]c2nc(C(F)(F)F)cc(C(F)(F)F)c12 | inconclusive: 19.8 µM [inhibitor, partial curve] |  |
| C/C(=N\Nc1ccc([N+](=O)[O-])cc1)c1ccc(O)cc1 | inconclusive: 12.5 µM [inhibitor, partial curve] |  |
| Cc1noc(C)c1COc1ccc(C(=O)OCC(=O)OC(C)(C)C)cc1 | inconclusive: 39.5 µM [inhibitor, single point] |  |
| CCOc1ccc(OCC)c(NC(=O)c2csc3c2CCCC3)c1 |  | inactive: -15.9% [at 76.3 µM] |
| Cc1ccnc(N/C=C(/NC(=O)c2ccccc2)C(=O)NN)n1 | inconclusive: 14 µM [inhibitor, partial curve] |  |
| CCOC(=O)C1=C(C)NC(=O)C(C#N)C1c1ccco1 (stereo unspecified) | inconclusive: 11.1 µM [inhibitor, partial curve] |  |
| Cc1cccc(-c2onc3ccc(C4(C)OCCO4)cc23)c1 | inconclusive: 7.94 µM [inhibitor, partial curve] |  |
| Cc1ccc(NC(=O)c2cncc(Br)c2)c(O)c1 | inconclusive: 50.1 µM [inhibitor, partial curve, poor fit] |  |
| CCCn1c(=O)c2sccc2n2c(CCCC(=O)Nc3ccc(Oc4ccccc4)cc3)nnc12 |  | inactive: -14.5% [at 76.3 µM] |
| Nc1nonc1NN=C1CCCCC1 | inconclusive: 22.4 µM [inhibitor, partial curve] |  |
| O=C(O)Cc1ccc(O)c(O)c1 | inconclusive: 3.55 µM [inhibitor, full curve] |  |
| Cc1ccc(N(Cc2cc3ccccc3[nH]c2=O)C(=O)c2cccc(Cl)c2)cc1 |  | inactive: -2% [at 76.3 µM] |
| O=C(NCCCNC(=O)c1cncc(O)c1)c1cncc(O)c1 | inconclusive: 8.84 µM [inhibitor, single point] |  |
| CC(C)c1cc(NC(=O)c2ccccc2)cc(C(C)C)c1O | inconclusive: 20 µM [inhibitor, partial curve] |  |
| Cc1ccccc1CNC(=O)Nc1cccs1 | inconclusive: 12.5 µM [inhibitor, partial curve] |  |
| C=CCOc1ccccc1CNc1ccc2[nH]c(=O)[nH]c2c1 | inconclusive: 39.8 µM [inhibitor, single point] |  |
| COc1ccc(CNc2oc(/C=C/c3cccc(OC)c3)nc2C#N)cc1 | inconclusive: 12.6 µM [inhibitor, partial curve] |  |
